According to publication PMC4336329 (PLoS ONE, 2015):
The whole screen tested about 310,000 compounds, of which about 14,000 (4.5%) showed an effect of 50% or more. Effects have a minus sign here. Some of the results follow.

Each molecule was assayed against human ether-à-go-go-related gene (hERG) potassium channel (human, UniProt Q12809) (assay: primary screen, population patch clamp on CHO cells stably expressing hERG).
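Also: peak tail current of the secondary pulse compared with the same well before compound.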

human ether-à-go-go-related gene (hERG) potassium channel, sequence (Q12809 whole entry, looked up): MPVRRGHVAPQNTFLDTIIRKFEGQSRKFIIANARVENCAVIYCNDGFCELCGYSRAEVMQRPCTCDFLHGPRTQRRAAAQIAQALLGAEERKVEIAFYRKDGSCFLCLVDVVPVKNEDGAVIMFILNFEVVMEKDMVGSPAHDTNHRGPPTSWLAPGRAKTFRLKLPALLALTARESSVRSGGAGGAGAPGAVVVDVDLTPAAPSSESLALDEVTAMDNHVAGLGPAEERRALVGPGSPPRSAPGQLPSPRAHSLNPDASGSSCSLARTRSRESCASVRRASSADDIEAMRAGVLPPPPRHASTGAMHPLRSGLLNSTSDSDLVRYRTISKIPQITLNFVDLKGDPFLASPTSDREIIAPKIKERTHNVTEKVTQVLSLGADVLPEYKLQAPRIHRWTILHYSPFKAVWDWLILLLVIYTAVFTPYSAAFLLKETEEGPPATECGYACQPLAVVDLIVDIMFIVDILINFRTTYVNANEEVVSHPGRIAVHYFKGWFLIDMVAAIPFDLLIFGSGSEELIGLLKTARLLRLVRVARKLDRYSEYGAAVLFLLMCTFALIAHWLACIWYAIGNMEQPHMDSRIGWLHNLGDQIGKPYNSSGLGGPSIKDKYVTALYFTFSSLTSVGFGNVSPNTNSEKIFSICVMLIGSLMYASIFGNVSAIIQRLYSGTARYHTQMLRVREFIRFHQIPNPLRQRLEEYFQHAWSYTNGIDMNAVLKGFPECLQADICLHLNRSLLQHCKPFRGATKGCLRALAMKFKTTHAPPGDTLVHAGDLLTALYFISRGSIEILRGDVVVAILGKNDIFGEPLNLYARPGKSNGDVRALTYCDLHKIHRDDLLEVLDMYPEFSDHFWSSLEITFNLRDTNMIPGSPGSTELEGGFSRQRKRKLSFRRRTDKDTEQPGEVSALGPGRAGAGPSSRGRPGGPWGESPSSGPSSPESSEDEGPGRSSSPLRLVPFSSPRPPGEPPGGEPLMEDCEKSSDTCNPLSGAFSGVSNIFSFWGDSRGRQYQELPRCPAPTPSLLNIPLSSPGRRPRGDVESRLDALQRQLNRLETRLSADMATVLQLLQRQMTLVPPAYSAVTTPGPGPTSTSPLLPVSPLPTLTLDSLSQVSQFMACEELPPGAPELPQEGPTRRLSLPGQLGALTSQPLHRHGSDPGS

Compound | hERG current change (%, negative = inhibition) at 10uM [%]
C/C(=N\NC(=O)Cc1ccc([N+](=O)[O-])cc1)c1cccnc1 | -13.8
O=C(NCC1CCCO1)c1cccc(C(=O)NCC2CCCO2)c1 (stereo not shown) | 3.37
c1ccc(-c2cnnn2-c2ccccc2)cc1 | 12.7
CCN(CC)S(=O)(=O)c1cc(NC(=O)c2ccc(Br)s2)ccc1C | 38.2
Cc1ccc(S(=O)(=O)N2CCC(=O)N(CCOC(=O)Nc3cc(C)cc(C)c3)CC2)cc1 | -40.7
Cc1nonc1NC(=O)CSc1cn[nH]n1 | 9.72
C=CCN(CC=C)C(=O)Nc1cc(OC)ccc1OC | 4.66
CN(C)CCNC(=O)/C(=C/c1ccc(-c2ccc(Cl)cc2)o1)NC(=O)c1ccccc1 | -80.9
C=CCn1c(SCC(=O)Nc2cccc3ccccc23)nnc1-c1cnccn1 | -39.9
Cc1onc(-c2ccccc2Cl)c1C(=O)NCc1nc(-c2ccccc2)no1 | -0.145
COc1ccc(NC(=O)CN2C(=O)N(C)Cc3ccccc32)c(C)c1 | -11.5
CP(=O)(O)CCCN.Cl | 7.29
CC1(C)CC(=O)c2c(O)c(-c3ccccc3)c(=O)n(-c3ccccc3)c2C1 | -6.83
O=C(Cc1ccccc1)Nn1c(-c2ccccc2F)nc2ccccc2c1=O | 10.3
Cc1ccccc1OCCCn1c(CO)nc2ccccc21 | 16.7
Cc1cc(C)c2c(=O)[nH]c(SCC(=O)c3ccc(F)c(C)c3)nc2n1 | 6.79
CCOc1ccccc1NC(=O)CC1Nc2cc(C)c(C)cc2NC1=O (stereo not shown) | -2.54
Cc1ccc(SC(C)c2nc(-c3ccncc3)no2)cc1 (stereo not shown) | -24.3
CCOCCCn1c(SCC(=O)NCc2ccco2)nc2c(sc3ccccc32)c1=O | -27.6
Cc1sc2nc(-c3cccs3)oc(=O)c2c1C | 17.8
CNC(=S)NNC(=O)COc1ccccc1C | 11.8
Cn1c(CNc2cccc(Cl)c2)nnc1SCC#N | -0.661

Compound | hERG current change (%, negative = inhibition) at 10uM [%]
O=C(Nc1nnc(-c2cccs2)o1)c1cccc(Oc2ccccc2)c1 | -1.89
Cc1ccc(OCc2cc(C(=O)NCc3cnn(-c4cccc(F)c4)c3)no2)cn1 | -2.68
Cc1ccc(C)c2c(SC(C)C(=O)NCc3ccco3)nc(-c3ccccc3)nc12 (stereo not shown) | -64.7
COc1cccc(F)c1C(=O)NC(=O)Nc1ccc2nc(C)oc2c1 | 5.61
O=C(CSc1nnc(CNC(=O)c2c(F)cccc2Cl)o1)Nc1ccc2c(c1)OCO2 | 5.77
CCOc1ccccc1/C=N/OCC(=O)NCc1ccc(F)cc1 | -0.596
O=C(NCc1ccccc1)c1cnc2n(c1=O)CCS2 | 8.61
O=[N+]([O-])c1ccccc1/C=C/CN1CCSCC1 | -5.62
COc1cc(C(=O)Nc2sc(C)c(C)c2C(=O)O)cc(OC)c1OC | 13.4
O=C(NC1CCN(C(=S)NCc2ccco2)CC1)C1CCCCC1 | -0.866
Cc1cc2oc(=O)cc(COC(=O)Cn3cnnn3)c2cc1C(C)C | -4.84
Cc1ccc(NS(=O)(=O)c2ccc(F)cc2)nc1 | 14
CC1(C)CC(NNCCC#N)=CC(=[N+]2CCCC2)C1.[I-] | 5.87
COc1ccccc1Oc1ccc(N2CC(C(=O)OCC(=O)c3ccccc3)CC2=O)cc1 (stereo not shown) | 18
CCOC(=O)c1c(-c2ccccc2)csc1NC(=O)CSc1ccccc1 | -4.13
COc1ccc(-c2nn(-c3ccccc3)cc2CO)cc1 | 4.56
COc1cccc(OC)c1C(=O)NC(=S)Nc1ccc2oc(-c3ccncc3)nc2c1 | 4.34
C[C@H](NC(=O)Cc1ccccc1)C(=O)N1CCC2(CC1)NCCc1[nH]cnc12 | 15.5
CN(CCC#N)C(=O)COC(=O)c1ccc(Cl)cc1O | 2.81
COC(=O)c1cccc(NC(=O)CN2CCOCC2)c1 | 11
CCOC(=O)C1CCCN(S(=O)(=O)c2cc3c(cc2Cl)NC(=O)CO3)C1 (stereo not shown) | -41.2
Cc1c(NC(=S)NC(=O)c2ccc(-c3ccc(Cl)cc3)o2)cccc1C(=O)O | 21.7

Compound | hERG current change (%, negative = inhibition) at 10uM [%]
COc1ccc(C2C(Oc3ccccc3)C(=O)N2c2cc(C)ccc2C)cc1OC (stereo not shown) | 6.07
CCOc1cc(NC(=S)NCC2CCCO2)c(OCC)cc1NC(=O)c1cccc(F)c1 (stereo not shown) | 7.62
CN(C(=O)COC(=O)COc1ccc(Cl)cc1)C1CCCCC1 | -17.4
Cc1cccc(N(CC(=O)NC2CCCCC2)C(=O)CCCC(=O)Nc2ccccn2)c1C | -16.1
CC(C)c1cc(C(=O)N2CCCC(Nc3ccc(F)c(F)c3)C2)nc(N)n1 (stereo not shown) | 6.66
Cc1ccccc1NC(=O)c1snc2c(=O)[nH]cnc12 | 9.89
Cl.N=c1sc2c(n1Cc1ccccc1)CCCC2 | -49.3
CC(C)c1ccc(N2C(=NC(=O)C3CC3)SC3CS(=O)(=O)CC32)cc1 (stereo not shown) | 13.3
CSc1ccc(/C=C/C(=O)OCC(=O)N2CCc3ccccc32)cc1 | 0.871
c1ccc(-c2cnnc3ccccc23)cc1 | -13.5
CC(=O)NC(c1ccc(C(C)C)cc1)c1c(O)ccc2ccccc12 (stereo not shown) | 8.87
Cc1ccc(Cn2ncc3c(N4CCN(C5CCCC5)CC4)ncnc32)cc1 | -22.9
O=C(Nc1ccccn1)c1ccc2ccccc2c1O | 10.1
CC1(c2nnc(-c3cccc(Cl)c3)o2)CC(c2ccccc2F)=NO1 (stereo not shown) | 0.552
CC(C)N(C(=O)CSc1nnc(NC(=O)c2cccs2)s1)C(C)C | 7.25
O=C(NCC1CCCCC1)C1CCCN(C(=O)NC2CCCCC2)C1 (stereo not shown) | -11.8
N#Cc1cnn2c(-c3ccccc3)ccnc12 | 2.49
Cc1cc(Cl)cc(Br)c1OCCCN1C(=O)NC(C)(C)C1=O | -0.566
CC1CCCCN1CCCNc1ccc(C(CC(N)=O)NC(=O)c2ccccc2)cc1[N+](=O)[O-] (stereo not shown) | 3.35
CC1(C)Cc2ccccc2C(NNC(=O)c2cccnc2)=N1 | 5.46
O/C(=C\c1nc2ccccc2nc1/C=C(\O)c1ccccc1)c1ccccc1 | -5.5
Cc1ccc(O)c(C(=O)c2cnn(C(=O)COc3ccccc3C#N)c2)c1 | 5.14

Compound | hERG current change (%, negative = inhibition) at 10uM [%]
Cc1cccc(NC(=O)CSc2nnc(CNC(=O)c3ccco3)n2C)c1C | -17.3
O=C(c1ccco1)N1CCN(c2c([N+](=O)[O-])nn(-c3cccc(Cl)c3)[n+]2[O-])CC1 | -38.1
Cc1sc(=NC(=O)c2ccco2)n(C)c1-c1ccc(Cl)cc1 | -39.2
Fc1ccccc1COc1ccc(-c2nnn(Cc3ccccc3F)n2)cc1 | 13.9
Cc1csc(NC(=O)CCc2c(C)nc3cc(-c4ccc(Cl)cc4)nn3c2C)n1 | -2.4
Cc1ccc(-n2c(C)cc(/C=N\NC(=O)CC(=O)NC(C)C)c2C)cc1 | -3.18
COc1ccc2c(c1)c(CC(=O)NCc1cc([N+](=O)[O-])ccc1O)c(C)n2C(=O)c1ccc(Cl)cc1 | 0.227
COC(=O)C1C(c2ccccc2)C(C(=O)N2CCOCC2)C1c1ccccc1 (stereo not shown) | -3.76
O=C(COc1ccc(F)cc1)N(Cc1ccc(Cl)cc1)C1CCS(=O)(=O)C1 (stereo not shown) | -38.7
C=CCSC1=N/C(=C\C=C\c2ccco2)C(=O)S1 | 7.36
CO/N=C/NC(=O)N1OC[C@@H]2COc3ccc4ccccc4c3[C@@H]21 | 8.59
COCCNC(=O)/C(C#N)=C/c1ccccc1Br | 0.195
CCN(CC(=O)Nc1c(F)cccc1F)C(=O)CNC(=O)c1ccc(C)s1 | 23.3
Cc1noc(C)c1C(=O)N1CCC2(CC1)Oc1ccc(F)cc1C(=O)C21CC(c2ccc(Cl)cc2)=NO1 (stereo not shown) | -48
O=C(CN(CCc1ccccc1)C(=O)CNS(=O)(=O)c1ccccc1)NCc1ccco1 | -12.4
CCOC(=O)C/C(C)=N/NC(=O)C1CC1(c1ccccc1)c1ccccc1 (stereo not shown) | 18.3
CC(C)[C@H](NC(=O)[C@@H]1Cc2ccccc2CN1C(=O)OC(C)(C)C)C(=O)NCc1ccco1 | -8.57
CCN(CC)c1ccc(NC(=O)Cn2nnc(-c3cccc(OC)c3OC)n2)c(C)c1 | 8.92
COc1ccc(Cl)cc1NC(=O)CN(C)C(C)C(=O)NCC1CCCCC1 (stereo not shown) | -34.4
COc1ccc(CCNc2ncnc3[nH]ncc23)cc1OC | 8.04
O=C(NCc1cccs1)C1CCN(S(=O)(=O)c2ccc3c(c2)OCCO3)CC1 | 16.5
Cc1cc2oc(=O)cc(CN3CCCCC3)c2cc1C(C)C | -26
